Measured values: article PMC4336329 (PLoS ONE, 2015)
The campaign covered roughly 310,000 compounds. About 2,200 (0.71%) showed an effect of 50% or more. The effect is printed as a negative number. This is one part of the list.

The compounds below were run against human ether-à-go-go-related gene (hERG) potassium channel (human, UniProt Q12809) (assay: primary screen, population patch clamp on CHO cells stably expressing hERG).
human ether-à-go-go-related gene (hERG) potassium channel, sequence (Q12809 whole entry, looked up): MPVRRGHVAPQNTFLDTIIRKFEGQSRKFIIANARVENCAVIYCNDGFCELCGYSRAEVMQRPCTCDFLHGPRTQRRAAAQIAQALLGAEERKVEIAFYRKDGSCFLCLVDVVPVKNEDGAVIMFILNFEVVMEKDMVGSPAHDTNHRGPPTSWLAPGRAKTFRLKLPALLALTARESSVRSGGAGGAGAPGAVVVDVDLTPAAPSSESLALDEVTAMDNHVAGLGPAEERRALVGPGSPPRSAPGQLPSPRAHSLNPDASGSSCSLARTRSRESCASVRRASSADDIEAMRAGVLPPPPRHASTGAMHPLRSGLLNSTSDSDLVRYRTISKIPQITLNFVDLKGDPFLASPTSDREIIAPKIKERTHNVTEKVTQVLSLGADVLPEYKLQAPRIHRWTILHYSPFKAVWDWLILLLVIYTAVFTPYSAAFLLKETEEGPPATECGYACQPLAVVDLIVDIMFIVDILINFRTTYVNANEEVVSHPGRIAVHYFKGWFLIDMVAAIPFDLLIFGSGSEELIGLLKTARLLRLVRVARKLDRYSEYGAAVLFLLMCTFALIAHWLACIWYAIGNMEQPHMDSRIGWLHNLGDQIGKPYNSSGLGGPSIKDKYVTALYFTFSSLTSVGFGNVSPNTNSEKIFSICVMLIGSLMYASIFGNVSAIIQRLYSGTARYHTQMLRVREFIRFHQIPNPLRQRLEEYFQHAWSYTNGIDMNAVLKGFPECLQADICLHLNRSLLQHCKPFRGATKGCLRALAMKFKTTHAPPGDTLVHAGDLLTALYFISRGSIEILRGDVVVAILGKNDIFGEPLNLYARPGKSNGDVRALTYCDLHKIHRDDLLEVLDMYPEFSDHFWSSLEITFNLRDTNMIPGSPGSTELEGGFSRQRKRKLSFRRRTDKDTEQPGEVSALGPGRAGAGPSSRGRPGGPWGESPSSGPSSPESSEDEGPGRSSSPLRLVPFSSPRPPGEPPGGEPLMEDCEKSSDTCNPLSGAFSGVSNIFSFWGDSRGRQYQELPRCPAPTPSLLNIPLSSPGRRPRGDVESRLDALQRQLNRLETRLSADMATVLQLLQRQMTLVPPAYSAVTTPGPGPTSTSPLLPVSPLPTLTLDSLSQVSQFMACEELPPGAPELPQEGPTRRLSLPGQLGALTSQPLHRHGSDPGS

SMILES | hERG current change (%, negative = inhibition) at 1uM
CN(C)S(=O)(=O)c1cccc(NC(=O)c2ccc(-n3cncn3)c([N+](=O)[O-])c2)c1 | 1.46%
Cc1c(C(=O)OCC(=O)N2CC(C)OC(C)C2)oc2ccc(Br)cc12 (stereo not shown) | 0.218%
CCOC(=O)CSc1nc2ccccc2c(=O)n1CCN1CCOCC1 | -36.8%
CN1C2CCC1CC(NC(=O)c1cc(Cl)cc3[nH]cnc13)C2 (stereo not shown) | 6.29%
O=C(NC1CCCC1)c1cc(-c2ccccc2Cl)on1 | 12.5%
O=C1c2ccccc2C(=O)C12OC(c1ccccc1)C1(C(=O)c3ccccc3C1=O)C2c1ccc([N+](=O)[O-])cc1 (stereo not shown) | 12.7%
CCOc1ccccc1C(=O)Nc1ccc(S(=O)(=O)Nc2cc(OC)nc(OC)n2)cc1 | 2.83%
CCCCN(CC)CCNC(=O)c1cc2c(=O)n(CC)c3ccccc3c2s1 | 1.04%
Cc1nc(Cl)sc1C(=O)Nc1cccc2ccccc12 | -0.114%
O=C(Cc1ccccc1C(=O)O)Nc1cccc2ccccc12 | 14.9%
Cc1cc(Cl)c(S(=O)(=O)Nc2ccon2)cc1OCC(=O)NC1CCCCC1 | 8.51%
O=C(Cc1ccccc1)N1CCC(C(=O)N2CCN(c3ccc(F)cc3)CC2)CC1 | -26.5%
Cc1ccc(OCc2nnc(SCC(=O)Nc3ccc4c(c3)OCO4)n2C)cc1 | -15%
O=C(NCc1c(O)ccc2ccccc12)c1ccccc1 | 12.8%
NC(N)=NS(=O)(=O)c1ccc(NC(=S)Nc2ccc(F)cc2)cc1 | 9.05%
CC(=O)Nc1ccc(Cc2nc3c([nH]2)c(=O)n(C)c(=O)n3C)cc1 | 16.6%
Nc1nc(-c2ccc(Cl)cc2)nn1C(=O)c1cccs1 | 8.57%
COc1ccccc1C(=O)N/C(=C\c1cn(C)c2ccccc12)C(=O)NCCCN1CCOCC1 | 20.8%
CCOC(=O)c1[nH]c2ccc(OCC)cc2c1NC(=O)CN1CCC2(CC1)OCCO2 | -13.3%
O=C(O)CNS(=O)(=O)Cc1ccccc1 | 17.3%
O=C(Cc1ccccc1)N1CCN(Cc2ccc(F)cc2)CC1.O=C(O)C(=O)O | 10.7%
Cn1c(=O)c2[nH]c(CN(Cc3ccccc3)Cc3ccccc3)nc2n(C)c1=O | 0.329%

SMILES | hERG current change (%, negative = inhibition) at 1uM
CCOc1ccc(NC2=CC(=O)CC(c3ccco3)C2)cc1 (stereo not shown) | 4.97%
COC(=O)[C@H]1C[C@H]1[C@@H](NC(=O)c1ccc[nH]1)c1ccccc1 | 2.75%
CCOC(=O)Nc1ccc2c(c1)N(C(=O)CN1CCN(C)CC1)c1ccccc1CC2.Cl | 10.3%
Cc1ccc(S(=O)(=O)NNC(=O)c2ccccc2O)cc1 | 9.41%
O=C(COCc1ccccc1)N[C@@H](Cc1ccc(O)cc1)C(=O)O | 6.13%
CCN1CCN(c2nc3c(c(=O)n(C)c(=O)n3C)n2Cc2cccc3ccccc23)CC1 | -3.45%
CCC(C)NS(=O)(=O)c1ccc(NC(=O)C(Sc2ccccc2)c2ccccc2)cc1 (stereo not shown) | 1.63%
CCOC(=O)c1cc2c(=O)n3cccc(C)c3nc2n(CCCOC)c1=NC(=O)c1cccnc1 | -65.4%
Cc1cc(=O)n2c3ccccc3n(C)c2n1 | 12.3%
CCOC(=O)c1ccccc1NC(=O)COC(=O)CN1C(=O)C2CC=CCC2C1=O (stereo not shown) | 4.2%
O=C(CCC(=O)Nc1ccc(F)cc1)N/N=C/c1cccnc1 | 14%
COc1ccc(CNC(=O)c2cc(C3CC3)on2)cc1 | 15.1%
O=C(NC1CCCc2c1cnn2-c1ccccc1F)c1ccccc1N1CCOCC1 (stereo not shown) | -11.9%
CCC(c1ccc(O)cc1)C(CC)c1ccc(O)cc1 (stereo not shown) | 7.79%
O=C(c1ccc(COc2ccc(F)cc2)o1)n1cccn1 | 10.7%
CCOC(=O)Cc1csc(NC(=O)CSc2nnc(C3CC3)n2C)n1 | 5.97%
COc1cccc(C=O)c1OCCN1C(=O)c2ccccc2C1=O | 11.9%
O=C(NCc1cccnc1)c1cccc(NC(=O)c2ccco2)c1 | -1.61%
COc1ccc(C(=O)OCC(=O)NC(=O)NC(C)C)cc1OC | 15.5%
O=C(CSc1nnc(COc2cccc3cccnc23)o1)N1CCc2ccccc21 | 14.3%
CN(CC(=O)Nc1ccccc1Cl)CC(=O)Nc1c(F)cccc1F | 16.7%
O=C(CCn1c(=O)oc2ccccc21)NCCCN1CCN(c2ccc(F)cc2)CC1 | -23.7%

SMILES | hERG current change (%, negative = inhibition) at 1uM
O=C(CSc1nc(-c2ccccc2)c(-c2ccccc2)[nH]1)N1CCN(S(=O)(=O)c2ccccc2)CC1 | 8.86%
COc1cc(C(=O)NCCC(=O)N2CCN(C)CC2)cc(OC)c1OC | 9.38%
CCOC(=O)Cn1c(CN2CCOCC2)nc2c1c(=O)n(C)c(=O)n2C | 2.78%
O=C(CCNS(=O)(=O)/C=C/c1ccccc1)NCCc1c[nH]c2ccccc12 | 10.6%
NC(=O)c1cnn(Cc2ccc(Cl)cc2)c1N | 10.6%
Cc1c(Cl)cccc1NC(=O)c1nc(C)n(-c2cc(OC(C)C)c(Cl)cc2Cl)n1 | 22.5%
COc1cccc(-c2csc(/C(C#N)=C/Nc3cc4oc5ccccc5c4cc3OC)n2)c1 | 5.17%
Cc1ccc(-c2cc(C(=O)NC3CCCC3)no2)cc1 | 6.77%
Fc1ccc(Oc2cnns2)cc1 | 14.1%
COc1ccc(C2SCC(=O)N2Cc2ccccc2)cc1 (stereo not shown) | 6.14%
Cc1cccc2nc(Cn3c(=O)n(CCCC(=O)NCc4ccco4)c(=O)c4ccccc43)cc(=O)n12 | 9%
Cc1ccccc1C(=O)Nc1nnc(S(=O)(=O)N(C)Cc2ccco2)s1 | 17%
CCCCc1ccc(Nc2ncnc3nc[nH]c23)cc1 | 3.46%
O=C(O)C1CCCCC1C(=O)N1CCN(S(=O)(=O)c2ccc(F)cc2)CC1 (stereo not shown) | 4.41%
COc1ccc(/C=N/NC(=O)c2ccc(NC(=O)c3cccc([N+](=O)[O-])c3)cc2)c(OC)c1 | 8.33%
COc1ccc(C)cc1Nc1n[n+](-c2ccccc2)c(-c2cc(OC)c(OC)cc2Br)s1.[Cl-] | -5.17%
COc1ccc(CCNC(=O)CCc2nnc(Cc3ccc4c(c3)OCO4)o2)c(OC)c1 | 11.6%
COc1ccccc1C(=O)NCC(=O)N/N=C/c1cn[nH]c1-c1ccccc1 | -11%
O=C(CSC1=NS(=O)(=O)c2cc(Cl)ccc2N1)Nc1ccccc1F | 5.13%
Cc1ccccc1NS(=O)(=O)c1ccc(C)c(C(N)=O)c1 | 1.8%
CCCn1nc2cc(C(=O)NCc3ccc(OC(F)(F)F)cc3)ccc2c1OCC | 15%
COc1ccc(NC(=O)CSc2nncc(=O)n2N)cc1OC | 13.8%

SMILES | hERG current change (%, negative = inhibition) at 1uM
Cl.Clc1cccc(-c2ccc(CNCc3ccccn3)o2)c1 | 6.57%
CCOc1ccccc1CNC(=O)c1cc2oc3ccccc3c2n1C | 9.01%
CCn1c(=O)n(CC(=O)N(C)Cc2ccccc2)c(=O)c2ccccc21 | 4.71%
Cc1cc(C)nc(/N=C(\N)Nc2cc([N+](=O)[O-])ccc2C)n1 | -20.1%
COc1cc2[nH]c(=O)n(Cc3ccc(C(=O)NC4CCN(Cc5ccccc5)CC4)cc3)c(=O)c2cc1OC | 9.93%
CCSc1nnc(NC(=O)C(C)Sc2nc3ccccc3[nH]2)s1 (stereo not shown) | 18.1%
NC(N)=NCC(O)CN(c1ccccc1)c1ccccc1.O=S(=O)(O)O (stereo not shown) | 6.54%
CC1CCCN(C(=O)CCS(=O)(=O)c2ccc3c(c2)n(C)c(=O)c(=O)n3C)C1 (stereo not shown) | 9.66%
O=C(Nc1nncs1)Oc1ccccc1 | 13.2%
COc1ccc([N+](=O)[O-])cc1C1NN=C(c2ccccc2O)S1 (stereo not shown) | 6.19%
CN(C)S(=O)(=O)c1ccc(C(=O)Nc2ccccc2C(=O)O)cc1 | 4.2%
CCCCNC(=S)N/N=C/c1sccc1C | 16.5%
CCOC(=O)N1CCN(C(=O)COc2cccc3c2CCN(Cc2ccc(F)cc2)C3=O)CC1 | -25.4%
COC(=O)Cc1cc(=O)n2[nH]c(C)nc2n1 | -10.3%
Cc1nc([N+](=O)[O-])cn1CC(=O)c1ccc(OC(F)(F)F)cc1 | 6.99%
CCOC(=O)c1c(N)sc2c(OC)c(Br)ccc12 | 13.7%
Cc1csc(NC(=O)c2ccc(S(=O)(=O)N3CCN(C)CC3)cc2)n1 | 13.1%
O=C(O)CCCCCCCCc1cn(CCc2c[nH]c3ccccc23)nn1 | 11.9%
S=C(Nc1ccc(Br)cc1)NC1CCCC1 | 6.59%
COc1ccc(C)cc1NCc1cccc(OC)c1OC | 2.77%
O=C1CSc2nc3ccccc3n21 | 6.97%
COc1ccc(N2CCN(CC(O)COCc3ccccc3)CC2)cc1.Cl (stereo not shown) | 7.03%
